From PubChem BioAssay (NCATS)
Inconclusive means that the source gave no clear call. Such entries were picked first, then a sample of the others. No potency is given beside an inconclusive call; the fits are too rough. Active and inactive are the calls of the source. Calls follow the shape of the dose curve; as a rule, active = well fitted cell-killing curve with a large enough effect; inconclusive = small, poorly fitted or top-dose-only effect, or effect the other way; inactive = no such curve, though single readings can be large or run the other way.

experiment: Viability qHTS for spleen associated tyrosine kinase inhibitor (SYKi) drug resistant MV4-11 cells (AID 1963824); settings: SYKi-resistant MV4-11 viability, CellTiter-Glo, 72 h; series mostly up to 45 µM; viability, % of control: at the top concentration; also: nearly all actives have a fitted effect of over 35% in size
Procedure, shortened: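 CellTiter-Glo luminescence, read 10 min after reagent addition, reports viability after a 72 hr compound exposure. Cells are an MV4-11 line made resistant to SYK inhibition, seeded at 500 per well onto compound-containing plates.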
Potency is read from the fitted curve at half-maximal effect; tags tell the direction and shape of the fitted curve.

Structure (SMILES) | viability, % of control | Potency
COc1cc([C@H]2c3cc(O)c(OC)cc3C[C@@H](CO[C@@H]3O[C@H](CO)[C@@H](O)[C@H](O)[C@H]3O)[C@@H]2CO)ccc1O | inactive: 90% [at 17.3 µM] | –
CC1(C)CC[C@]2(C(=O)O)CC[C@]3(C)C(=CCC4[C@@]5(C)C[C@@H](O)[C@H](O)[C@](C)(CO)C5CC[C@]43C)[C@@H]2[C@@H]1O (some centres not stated) | – | inconclusive [cytotoxic, partial curve, poor fit]
CN1CCCN=C1COC(=O)C(O)(c1ccccc1)C1CCCCC1 (configuration not stated) | inactive: 86.4% | –
O=C1Nc2ccccc2/C1=C/c1cc(O)ccc1O | – | inconclusive [cytotoxic, partial curve]
CC(C)C1NC(=O)C(CC2(O)c3ccccc3N3C(=O)C(Cc4ccccc4)NC32)NC1=O (configuration not stated) | – | inconclusive [cytotoxic, partial curve, poor fit]
COc1cccc(NCCC2(c3ccccc3)CC(C)(C)OC(C)(C)C2)c1 | inactive: 102% | –
C=C1CCC2C(C)(C)C(O)CCC2(C)C1CCC(C)CCOC(C)=O (configuration not stated) | – | inconclusive [cytotoxic, partial curve]
